In all, about 350,000 compounds went through this assay and about 31,000 (8.9%) were called active. The shares of active, inactive and inconclusive entries below differ from those in the screen. Calls follow the shape of the dose curve; as a rule, active = well fitted inhibition curve with a large enough effect; inconclusive = small, poorly fitted or top-dose-only effect; inactive = no such curve, though single readings can be large or run the other way. Potencies beside an inconclusive call are fits to weak or partial responses and may not hold up.
Molecular target: Histone-lysine N-methyltransferase EHMT2 (Homo sapiens) (UniProt Q96KQ7)
Assay: qHTS Assay for Inhibitors of Histone Lysine Methyltransferase G9a; also: nearly all actives have a fitted effect of over 75% in size
Conditions: G9a H3K9 monomethylation, AlphaScreen, 2 h; activity, negative = inhibition: at 59 µM (top of the series) unless noted
Summary of the method: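 Readings reflect AlphaScreen signal from monomethyl-H3K9 antibody detection. HMT at 20 nM; substrate b-H3K9 500 nM; cofactor SAM 20 uM; 2 h RT reaction; compounds tested as titrations in qHTS with 15 min preincubation.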
% is scaled to controls: 0 for no effect and ±100 for the full control effect; potency is read from the fitted curve at half-maximal effect; tags tell the direction and shape of the fitted curve.

Chain of UniProt Q96KQ7 (Q96KQ7 whole entry, looked up): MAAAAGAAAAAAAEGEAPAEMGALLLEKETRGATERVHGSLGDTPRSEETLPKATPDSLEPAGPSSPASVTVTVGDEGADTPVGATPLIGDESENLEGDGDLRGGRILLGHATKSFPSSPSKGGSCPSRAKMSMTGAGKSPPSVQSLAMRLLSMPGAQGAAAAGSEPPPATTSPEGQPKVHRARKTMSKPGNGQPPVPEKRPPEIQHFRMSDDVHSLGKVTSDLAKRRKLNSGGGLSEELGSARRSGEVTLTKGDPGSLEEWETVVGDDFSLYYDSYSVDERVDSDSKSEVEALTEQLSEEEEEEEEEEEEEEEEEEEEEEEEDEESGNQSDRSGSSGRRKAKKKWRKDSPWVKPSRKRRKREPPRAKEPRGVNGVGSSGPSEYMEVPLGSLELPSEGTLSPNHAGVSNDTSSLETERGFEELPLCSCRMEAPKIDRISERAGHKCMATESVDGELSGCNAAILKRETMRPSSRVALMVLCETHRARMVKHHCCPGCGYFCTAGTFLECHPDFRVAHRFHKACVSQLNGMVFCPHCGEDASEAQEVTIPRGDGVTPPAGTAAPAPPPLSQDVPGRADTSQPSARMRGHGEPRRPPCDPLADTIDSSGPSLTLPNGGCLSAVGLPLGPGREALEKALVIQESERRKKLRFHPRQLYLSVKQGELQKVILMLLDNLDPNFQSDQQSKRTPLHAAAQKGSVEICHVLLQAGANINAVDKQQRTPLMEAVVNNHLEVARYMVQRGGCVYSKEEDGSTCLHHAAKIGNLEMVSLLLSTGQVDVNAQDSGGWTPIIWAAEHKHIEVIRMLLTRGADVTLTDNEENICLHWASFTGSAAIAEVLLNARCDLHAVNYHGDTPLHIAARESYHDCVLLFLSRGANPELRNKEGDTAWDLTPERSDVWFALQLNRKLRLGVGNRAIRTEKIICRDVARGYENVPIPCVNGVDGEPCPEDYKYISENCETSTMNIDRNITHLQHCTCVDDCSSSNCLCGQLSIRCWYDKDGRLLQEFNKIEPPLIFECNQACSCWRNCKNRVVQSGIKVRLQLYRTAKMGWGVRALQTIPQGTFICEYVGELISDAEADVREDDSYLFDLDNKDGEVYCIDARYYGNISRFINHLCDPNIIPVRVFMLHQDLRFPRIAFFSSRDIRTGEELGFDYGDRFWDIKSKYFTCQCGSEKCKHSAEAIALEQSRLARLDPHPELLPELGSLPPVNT

Compound | Potency | activity, negative = inhibition
Cc1cc(Nc2cc(C)on2)n2ncnc2n1 | inconclusive: 0.794 µM [inhibitor, full curve, poor fit] | –
O=C1/C(=C/c2cccs2)NC(=S)N1C1CC1 | active: 39.8 µM | –
Cc1cc(=O)n2[nH]c(-c3cccc(Cl)c3)cc2n1 | – | inactive: -10.1% [at 102 µM]
CCC(=O)Nc1ccc(NC(=O)/C=C/c2ccc(Cl)cc2)cc1 | – | inactive: 29.2% [at 102 µM]
C=CCn1c(SCC(=O)Nc2sc(C)c(C)c2C(=O)OCC)nnc1-c1sc(N)nc1C | inconclusive: 31.6 µM [inhibitor, single point] | –
COc1ccc(N2CCN(C(c3cccs3)C(C)NS(C)(=O)=O)CC2)cc1 (configuration not stated) | active: 56.2 µM | –
CCCN1C(=O)/C(=C/c2ccco2)SC1=Nc1ccc(OC)cc1 | inconclusive: 4.47 µM [inhibitor, single point] | –
Cc1ccc(/C=N\NC(=O)C2CN(S(=O)(=O)c3ccccc3)CCN2S(=O)(=O)c2ccccc2)cc1 (configuration not stated) | inconclusive: 11.2 µM [inhibitor, partial curve, poor fit] | –
Cn1cc(Br)c(C(=O)Nc2ncc(Br)s2)n1 | – | inactive: 10.7%
CCCn1c(SCC(=O)c2cc(C)ccc2C)n[nH]c1=O | active: 7.08 µM | –
COc1ccc(-c2nnc(SCCC(=O)O)n2-c2ccccc2)cc1 | inconclusive: 3.16 µM [inhibitor, partial curve, poor fit] | –
O=[N+]([O-])c1ccc2nnn(O)c2c1 | inconclusive: 89.1 µM [inhibitor, single point] | –
CC(=O)Nc1ccc(C2NC(=S)N(c3ccccc3C(F)(F)F)C(C)=C2C(=O)N2CCOCC2)cc1 (configuration not stated) | – | inactive: -27.5% [at 102 µM]
Cc1ccc(N=Nc2ccc(O)c(P(=O)(c3ccccc3)c3ccccc3)c2)cc1 | inconclusive: 2.82 µM [inhibitor, full curve] | –
CCc1nnc(NS(=O)(=O)c2ccc(NC(=S)NC(=O)/C=C/c3ccccc3)cc2)s1 | inconclusive: 79.4 µM [inhibitor, single point] | –
NC(=O)CN1C(=O)C2C3c4ccccc4C(c4ccccc43)C2C1=O (configuration not stated) | inconclusive: 89.1 µM [inhibitor, single point] | –
O=C(O)c1ccc2oc(SCC(=O)N3CCCCC3)nc2c1 | inconclusive: 50.1 µM [inhibitor, partial curve, poor fit] | –
CCN(CC)c1ccc(C2Nc3cccc4cccc(c34)N2)c(O)c1 | active: 31.6 µM | –
Cc1ccc(S(=O)(=O)N(C)C)cc1NC(=S)NNC(=O)C1CC1 | – | inactive: 1.49%
COc1ccc(NC(=O)CSc2ncnc3sc(C)cc23)cc1 | – | inactive: -3.52% [at 102 µM]
NNC(=O)COc1cccc2cccnc12 | – | inactive: -15.9%
C=CCNCCCCOc1ccccc1 | inconclusive: 4.47 µM [inhibitor, full curve, poor fit] | –
COc1ccc(NC(=O)CCNC(=O)c2ccc([N+](=O)[O-])cc2)cc1S(=O)(=O)N1CCCCC1 | inconclusive: 44.7 µM [inhibitor, partial curve, poor fit] | –

Compound | Potency | activity, negative = inhibition
Cc1c(C)c2c(OCC(=O)O)cc3c(c2oc1=O)CCC(C)(C)O3 | – | inactive: 13.5% [at 102 µM]
Oc1cc2cc(CCN3CCN(c4nsc5ccccc45)CC3)c(Cl)cc2[nH]1 | inconclusive: 2 µM [inhibitor, partial curve, poor fit] | –
Cn1cc(CCNC(=O)CC2C(=O)NCCN2Cc2cccc(Oc3ccccc3)c2)cn1 (configuration not stated) | active: 35.5 µM | –
COc1ccccc1NC(=O)c1oc2ccccc2c1NC(=O)c1c(F)cccc1F | – | inactive: 7.43%
O=C(O)C1CC=CCC1C(=O)Nc1ccc(S(=O)(=O)N2CCCc3ccccc32)cc1 (configuration not stated) | inconclusive: 0.794 µM [inhibitor, partial curve, poor fit] | –
CCOC(=O)C1(C)C=C(Nc2ccc(OC)cc2)C(=O)N1c1ccccc1 (configuration not stated) | inconclusive: 3.16 µM [inhibitor, partial curve, poor fit] | –
COc1ccc(NC(=O)C(C)N=C2NS(=O)(=O)c3ccccc32)cc1S(N)(=O)=O (configuration not stated) | – | inactive: 12.2% [at 12.7 µM]
O=C(Oc1ccccc1N1C(=O)C2CC=CCC2C1=O)c1ccc(Br)cc1 (configuration not stated) | inconclusive: 3.16 µM [inhibitor, single point] | –
COc1ccc(CC(=O)N[C@@H](CCSC)C(=O)N2CCC3(CC2)NCCc2[nH]cnc23)cc1 | inconclusive: 79.4 µM [inhibitor, single point] | –
COc1cccc(-c2nc(CS(=O)(=O)CC(=O)NCCN3CCOCC3)c(C)o2)c1 | – | inactive: 19.4%
C=CCOc1ccc(/C(O)=C2/C(=O)C(=O)N(CCCN3CCOCC3)C2c2ccc(OC)cc2)cc1 (configuration not stated) | inconclusive: 35.5 µM [inhibitor, single point] | –
Oc1cc(Nc2ccncc2)cc2cccnc12 | – | inactive: -26.7% [at 12.7 µM]
COc1ccc(OCCCC(=O)Nc2nc(-c3ccccn3)cs2)cc1 | inconclusive: 39.8 µM [inhibitor, full curve, poor fit] | –
CCOC(=O)c1ccc(NC(=O)C2CC(=O)N(c3ccc4c(c3)OCCO4)C2)cc1 (configuration not stated) | inconclusive: 0.316 µM [inhibitor, partial curve, poor fit] | –
COC(=O)c1ccc(-c2ccco2)n1Cc1cc(C)ccc1C | – | inactive: -3.37% [at 102 µM]
C#CCOCCOCCOCCNc1nc(N2CCN(C(=O)Cn3cc(CCCN=C(N)N)nn3)CC2)nc(N2CCN(C(=O)[C@H]([C@@H](C)CC)n3cc(CCCCN)nn3)CC2)n1 | – | inconclusive: -61.5% [inhibitor] [at 2.33 µM]
COc1ccc(S(=O)(=O)N2CCOCC2)cc1NC(=O)c1cc2ccccc2o1 | active: 44.7 µM | –
O=C(/C=C/c1ccccc1Cl)c1cccnc1 | active: 35.5 µM | –
CC(C)CSc1ccc(S(=O)(=O)NCC(=O)O)cc1[N+](=O)[O-] | active: 50.1 µM | –
CSCCC(NC(C)=O)C(=O)Oc1ccc2c3c(c(=O)oc2c1)CCCC3 (configuration not stated) | inconclusive: 35.5 µM [inhibitor, partial curve, poor fit] | –
CCCCC(C(=O)N/N=C/c1ccccn1)C(=O)N/N=C/c1ccccn1 | inconclusive: 1.26 µM [inhibitor, full curve, poor fit] | –
Cc1ccc(Cl)cc1NC(=S)Nn1cnnc1 | inconclusive: 7.94 µM [inhibitor, partial curve, poor fit] | –
Cc1cccc(NCc2nc3ccccc3n2Cc2ccccc2)c1 | inconclusive: 89.1 µM [inhibitor, single point] | –

Compound | Potency | activity, negative = inhibition
Cn1c(=O)c(C(=O)COC(=O)c2cc(C(F)(F)F)nc3ccccc23)c(N)n(Cc2ccccc2)c1=O | inconclusive: 70.8 µM [inhibitor, single point] | –
CCCC(c1nnnn1Cc1ccc(OC)cc1)N1CCN(c2ccccc2OC)CC1 (configuration not stated) | inconclusive: 0.562 µM [inhibitor, full curve] | –
CC(C)C[C@@H](COc1ccccc1)N1CCN(Cc2ccccc2)CCC1=O | inconclusive: 89.1 µM [inhibitor, single point] | –
CCOc1ccc(/C(O)=C2/C(=O)C(=O)N(CCCN3CCOCC3)C2c2ccc(C)cc2)cc1C (configuration not stated) | inconclusive: 79.4 µM [inhibitor, single point] | –
COc1ccc(C(=O)c2ccc(N3CCOCC3)c([N+](=O)[O-])c2)cc1 | inconclusive: 15.8 µM [inhibitor, partial curve, poor fit] | –
Cc1ccc(CNC(=O)CNC(=O)[C@@H]2Cc3ccccc3CN2)cc1 | inconclusive: 79.4 µM [inhibitor, single point] | –
Cc1cccc(NC2=C(C#N)C(=O)NC3(CCCC3)S2)c1 | inconclusive: 44.7 µM [inhibitor, partial curve] | –
CCc1ccc(Nc2nn3c(=O)c4cc5c(cc4nc3s2)OCO5)cc1 | – | inactive: -48.5%
O=C1NC2(NN1c1ccccc1)C1CC3CC(C1)CC2C3 (configuration not stated) | inconclusive: 25.1 µM [inhibitor, single point] | –
CN(C)c1ccc(C=C2C(=O)OC(C)(C)OC2=O)cc1 | inconclusive: 31.6 µM [inhibitor, single point] | –
Cc1ccc(CNC(=O)[C@H]2C[C@@H]2[C@H](NP(=O)(c2ccccc2)c2ccccc2)c2ccccc2)o1 | active: 50.1 µM | –
Cc1cc(C(=O)Nc2c(C)nn(Cc3ccc(F)cc3)c2C)on1 | inconclusive: 4.47 µM [inhibitor, full curve, poor fit] | –
CCOc1ccc2nc(SC3CC(=O)N(c4ccc(OC)cc4OC)C3=O)sc2c1 (configuration not stated) | active: 31.6 µM | –
CCn1c(SCC(=O)N/N=C/c2c[nH]c3ccccc23)nnc1-c1ccc(Cl)cc1 | – | inactive: 12.6%
O=C(CC1C(=O)NCCN1Cc1ccc(-c2ccccc2)cc1)NCC1CCOCC1 (configuration not stated) | – | inactive: -23.9% [at 102 µM]
Cc1ccc(NC(=O)COC(=O)c2cc(Cl)ccc2[N+](=O)[O-])c(C)c1 | inconclusive: 79.4 µM [inhibitor, single point] | –
CC1=CC(=O)C=C(C)C1=NOS(=O)(=O)c1ccccc1 | inconclusive: 3.16 µM [inhibitor, partial curve, poor fit] | –
COc1ccc(CNC(=O)c2ccc3c(c2)N(Cc2ccccc2F)C(=O)c2ccccc2S3=O)cc1 (configuration not stated) | inconclusive: 35.5 µM [inhibitor, partial curve, poor fit] | –
O=C(CSc1oc(-c2ccccc2)nc1S(=O)(=O)c1ccc(Br)cc1)NC1CCCCC1 | inconclusive: 28.2 µM [inhibitor, single point] | –
O=[N+]([O-])c1cccc(Nc2c3ccccc3nc3ccccc23)c1 | inconclusive: 79.4 µM [inhibitor, single point] | –
COCCn1nnnc1C(c1ccc(OC)c(OC)c1)N1CCc2ccccc21 (configuration not stated) | inconclusive: 50.1 µM [inhibitor, partial curve] | –

— PubChem BioAssay AID504332 (National Center for Advancing Translational Sciences (NCATS), 2011)
